# Reference: paper PMC4336329 (PLoS ONE, 2015)
# Out of some 310,000 compounds screened, about 2,200 (0.71%) showed an effect of 50% or more. Effects have a minus sign here. The list shows a part of the results.
# Target: human ether-à-go-go-related gene (hERG) potassium channel (human, UniProt Q12809)
# Test: primary screen, population patch clamp on CHO cells stably expressing hERG
# Chain of human ether-à-go-go-related gene (hERG) potassium channel (Q12809 whole entry, looked up): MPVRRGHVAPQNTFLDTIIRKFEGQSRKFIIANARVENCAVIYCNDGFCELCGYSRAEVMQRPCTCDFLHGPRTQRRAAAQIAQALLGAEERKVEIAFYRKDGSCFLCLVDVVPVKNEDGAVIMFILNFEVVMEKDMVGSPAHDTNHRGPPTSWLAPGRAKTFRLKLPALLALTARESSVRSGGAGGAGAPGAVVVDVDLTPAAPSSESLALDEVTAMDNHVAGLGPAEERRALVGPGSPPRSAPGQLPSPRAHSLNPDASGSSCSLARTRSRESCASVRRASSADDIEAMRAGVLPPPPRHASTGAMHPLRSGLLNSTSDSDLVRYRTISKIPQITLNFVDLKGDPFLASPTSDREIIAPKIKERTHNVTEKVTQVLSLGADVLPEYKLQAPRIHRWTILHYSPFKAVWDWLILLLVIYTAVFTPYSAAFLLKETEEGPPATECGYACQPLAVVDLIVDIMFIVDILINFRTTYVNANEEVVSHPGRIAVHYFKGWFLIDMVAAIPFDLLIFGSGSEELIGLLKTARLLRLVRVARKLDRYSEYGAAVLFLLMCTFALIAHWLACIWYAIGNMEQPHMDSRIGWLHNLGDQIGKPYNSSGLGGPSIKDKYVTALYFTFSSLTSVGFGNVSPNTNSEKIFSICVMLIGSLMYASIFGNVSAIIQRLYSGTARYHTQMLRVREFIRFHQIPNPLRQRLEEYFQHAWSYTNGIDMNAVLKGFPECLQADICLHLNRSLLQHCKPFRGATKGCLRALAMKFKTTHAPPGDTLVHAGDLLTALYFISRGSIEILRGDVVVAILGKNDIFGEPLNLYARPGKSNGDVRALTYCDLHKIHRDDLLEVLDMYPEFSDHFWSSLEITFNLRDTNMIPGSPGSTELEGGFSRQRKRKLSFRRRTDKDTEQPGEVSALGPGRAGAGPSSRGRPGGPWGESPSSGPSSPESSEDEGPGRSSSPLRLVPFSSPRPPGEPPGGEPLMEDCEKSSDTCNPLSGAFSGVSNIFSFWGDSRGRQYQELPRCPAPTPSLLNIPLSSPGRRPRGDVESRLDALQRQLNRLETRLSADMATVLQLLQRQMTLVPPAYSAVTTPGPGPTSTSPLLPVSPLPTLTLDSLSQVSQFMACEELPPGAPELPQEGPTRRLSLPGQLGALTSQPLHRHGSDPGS
row,Structure (SMILES),"hERG current change (%, negative = inhibition) at 1uM"
1,CC(C)(C)c1ccc(NC(=O)NCc2ccco2)cc1,-1.05%
2,COc1ccc2c(c1)[nH]c1c(=O)n(CCN3CCOCC3)cnc12,9.72%
3,O=C(O)c1ccccc1C(=O)N1CCc2c([nH]c3ccccc23)C1C(F)(F)F (centres unmarked),11.7%
4,Cc1cc(Nc2ccc([N+](=O)[O-])cc2)nc2ccccc12,7.46%
5,O=C1CCCC/C1=C/Nc1ccc2c(c1)OCO2,19.9%
6,CN1CCN(C(=S)Nc2cc([N+](=O)[O-])ccc2Cl)CC1,7.19%
7,Cc1cc(NC(=O)CCC(=O)N(c2ccccc2)C(C(=O)NC2CCCC2)c2ccccc2)no1 (centres unmarked),5.45%
8,COc1ccc(C2CC(c3ccc(C)o3)=NN2C(C)=O)cc1 (centres unmarked),6.22%
9,Clc1ccc(-c2cc(COc3ccccc3)on2)cc1,13.5%
10,Cc1ccc(C(=O)Nc2ccc3c(c2)OCO3)cc1S(=O)(=O)N1CCCC1,5.87%
11,CN(C)S(=O)(=O)c1ccc(N2CCCC2=O)c([N+](=O)[O-])c1,0.0262%
12,Cc1ccc(CNC(=O)c2cccc3c2C(=O)c2ccc(N4CCC(C)CC4)cc2S3(=O)=O)cc1,14.3%
13,O=C(Nc1ccccc1N1CCOCC1)c1cccc(NS(=O)(=O)c2ccc(F)c(F)c2)c1,17.9%
14,CCN1C(=O)[C@H]2[C@@H](c3ccc(Cl)cc3)N3C(=O)CN(CC4CC4)C(=O)[C@@]3(C)[C@H]2C1=O,-1.33%
15,COc1ccc(C(=O)NCc2ccncc2)cc1OC,17.1%
16,O=C(NCc1ccccc1Cl)c1ccc2nnsc2c1,14.4%
17,CCCCN(C)C(=O)c1cn(CC)c2ccc(S(=O)(=O)N(C)C)cc2c1=O,10.2%
18,COc1ccc(/C=N/NC(=O)CCc2n[nH]c(=O)[nH]c2=O)cc1O,8.82%
19,CCCCCc1nc2c(c(=O)c3ccccc3n2C)c(=O)n1C1CCCCCC1,20.1%
20,S=C(NC1CCCCC1)N1CCn2cccc2C1c1cccnc1 (centres unmarked),8.79%
21,O=C(Nc1ccccc1-c1ccccc1)C1CCCCC1,4.9%
22,Cc1nn2c(NCCCN(C)C)c3c(nc2c1-c1ccccc1)CCCC3,3.47%
23,O=C(O)c1ccccc1-c1ccccc1C(=O)NCc1ccccc1F,15.8%

row,Structure (SMILES),"hERG current change (%, negative = inhibition) at 1uM"
1,CNc1ccccc1C(=O)OC,12.8%
2,CN(CC(=O)NNC(=O)c1cccnc1)S(=O)(=O)c1cc(Cl)ccc1Cl,15%
3,O=[N+]([O-])c1ccc2nc(SCc3cn4cccnc4n3)[nH]c2c1,-5.33%
4,CCN1CCN(C(=O)c2ccc3c(c2)N(Cc2ccccc2)C(=O)c2ccccc2S3=O)CC1 (centres unmarked),1.19%
5,COC(=O)c1cc(-c2ccc(Br)cc2)c2c(=O)n(C)c(=O)n(C)c2n1,11.7%
6,COCc1cc(C)nc(NC2CCCCC2)c1C#N,-2.62%
7,Cc1ccc(F)cc1NC(=O)CN1C(=O)NC2(CCCc3ccccc32)C1=O (centres unmarked),4.17%
8,CCC(C)(C)n1nnnc1CN1CCSCC1.Cl,14%
9,CCOC(=O)c1sc(=NC(=O)c2ccc(OC)c(OC)c2)n(C)c1C,9.97%
10,N#CCC(=O)Nc1nc(-c2ccc3c(c2)OCCO3)cs1,8.5%
11,CC(O)[C@H]1CN=C(N)N1CC(C)(C)C (some centres unmarked),16.1%
12,CC1CN(C(=O)c2ccc(N3CCCCC3)c([N+](=O)[O-])c2)CC(C)O1 (centres unmarked),6.28%
13,CCOc1ccc(NC(=O)COc2ccc(C(=O)NC(C)c3ccc(S(N)(=O)=O)cc3)cc2OC)cc1 (centres unmarked),9.08%
14,CC(C(=O)N1CCCCC1)N1C(=O)c2ccccc2C1=O (centres unmarked),6.9%
15,COc1ccc(-c2cc3ccccc3[nH]2)cc1,9.14%
16,Cc1cccc(C(=O)N2CC(=O)Nc3ccc(F)cc3C2c2ccc(F)cc2)c1 (centres unmarked),5.39%
17,CC(C)Cc1nnc(NC(=O)CCC(=O)N2CCCCC2)s1,15.1%
18,O=[N+]([O-])c1c(NCCCO)cc(N2CCCCCC2)c2nonc12,13.5%
19,CN(CC(=O)Nc1ccccc1Br)C(=O)c1ccccc1-c1nc2ccccc2s1,1.31%
20,CCOC(=O)C1=C(c2ccccc2)OC(N)=C(C#N)C1c1ccco1 (centres unmarked),14.6%
21,CC(=O)Nc1nc(N)n(-c2ccccc2)n1,4.98%
22,CCOC(=O)c1c(C)n(C(=O)c2ccco2)c(=O)n1C(=O)c1ccco1,3.11%
23,O=C(Cc1ccccc1)Nc1ccc(NC(=O)c2ccc(Br)cc2)cc1,17.1%

row,Structure (SMILES),"hERG current change (%, negative = inhibition) at 1uM"
1,COc1ccc(C(=O)CSc2nnc(-c3cnccn3)n2Cc2ccco2)cc1,-0.832%
2,O=C(CCC(=O)NC1CCCCC1)Nc1cccnc1,13.7%
3,O=C(NCCCN1CCCC1=O)c1cc2ccccc2o1,8.38%
4,Cc1cccc(NC(=O)c2sccc2-n2cccc2)c1C,13%
5,Cc1ccc(S(=O)(=O)NCCn2nc(C)nc2C)cc1,16.5%
6,CCCC(C)(C)NC(=O)CCCCC(=O)NC(C)(C)CCC,5.58%
7,O=C(Cc1csc(-c2ccc(Cl)cc2)n1)Nc1cccc(S(=O)(=O)NC2=NCCC2)c1,14.8%
8,C[C@]12CCC(=O)C=C1CC[C@@H]1C2CC[C@]2(C)C(=O)CCC12 (some centres unmarked),9.07%
9,Fc1cccc(CCN2C(=S)NC[C@@H]2Cc2ccccc2)c1,-11.6%
10,CC(OC(=O)c1ccccn1)C(=O)Nc1ccc2c(c1)OCCO2 (centres unmarked),6.36%
11,O=C(c1cnc2ccccc2n1)N1CCN(c2ccc(C(F)(F)F)cn2)CC1,2.54%
12,Cc1[nH]c(=O)[nH]c(=O)c1/C=N/NC(=O)[C@@H](N)CC(C)C.Cl,-1.91%
13,O=C(c1ccc(-c2ccccc2Cl)o1)N1CCN(c2ccccc2O)CC1,5.91%
14,Cl.O=C(CCS(=O)(=O)c1ccccc1)N(CCCN1CCOCC1)c1nc2c(F)cccc2s1,7.36%
15,C=CCNC(=S)NS(=O)(=O)c1cccs1,9.12%
16,NC(N)=NC(N)=Nc1cccc2ccccc12,5.63%
17,COC(=O)[C@H](CCSC)NC(=O)NCc1ccccn1,6.44%
18,Cc1ccc(S(=O)(=O)Nc2ccccc2C(=O)N2CCN(C)CC2)cc1,3.41%
19,COCC(=O)N1CCCN(c2nc3c(C)cccc3cc2C#N)CC1,3.26%
20,CCCCCC1CCC(C(=O)NNC(=S)NCC)CC1 (centres unmarked),4.38%
21,O=C(Nc1cccc(Cl)c1)N1CCN(c2ncccn2)CC1,6.58%
22,CCOc1ccc(C2/C(=C(\O)c3ccc4c(c3)OCCO4)C(=O)C(=O)N2CCCN2CCOCC2)cc1 (centres unmarked),12.7%
23,CC(C)(C)NC(=O)C(c1ccco1)N(Cc1ccc(F)cc1)C(=O)c1snc(C(N)=O)c1N (centres unmarked),-6.09%

row,Structure (SMILES),"hERG current change (%, negative = inhibition) at 1uM"
1,O=C(Nc1ccc(S(=O)(=O)Nc2ccccn2)cc1)c1cccc(Cl)c1,17.2%
2,Cc1ccc(C(=O)N2CCN(S(=O)(=O)c3ccccc3C#N)CC2)cc1S(=O)(=O)N1CCOCC1,4.15%
3,Cn1c(SCC(=O)N2CCCC2)nnc1-c1ccc2c(c1)OCO2,15.3%
4,Cc1ccc(S(=O)(=O)N(C)C)cc1NC(=O)COC(=O)c1ccc2c(c1)OCCO2,18.6%
5,CCCn1c(=O)c(C(=O)NCc2cccnc2)c(O)c2ccccc21,8.83%
6,CCCCS(=O)(=O)N1CCN(C(=N)N[N+](=O)[O-])CC1,9.27%
7,Cc1c(NC(=O)c2ccccc2N(C)S(=O)(=O)c2ccccc2)c(=O)n(-c2ccccc2)n1C,-7.68%
8,CC(=O)N1CCC(=NNS(=O)(=O)c2ccc(C)c([N+](=O)[O-])c2)CC1,10.6%
9,O=C(NCCNC(=O)c1ccccn1)c1ccc(Cl)cc1,10.9%
10,Nn1c(Cc2ccccc2F)nnc1SCn1nnc2ccccc2c1=O,12.3%
11,CC(=O)Oc1c(C(=O)c2nnc(C)o2)c(=O)n(Cc2ccccc2)c2ccccc12,1.49%
12,O=c1c2ccccc2c(C=Nc2cccc(S(=O)(=O)NC3=NCCCCC3)c2)c(O)n1Cc1ccccc1,3.66%
13,O=C(c1cc2ccccc2c(=O)o1)N1CCc2ccccc2C1,5.39%
14,CCCNC(=O)CN1C(=O)COc2ccc(S(=O)(=O)N3CCCCCC3)cc21,14.6%
15,O=Cc1cn(CC(=O)Nc2ccccc2)c2ccccc12,6.4%
16,COc1cc(NC(=S)NCc2cccnc2)cc(OC)c1OC,20.9%
17,Cc1cc(Cl)ccc1OCCCC(=O)N1CCN(C)CC1,0.322%
18,COc1cccc(NC(=O)CSc2nnc(NC(=O)C3CC3)s2)c1,13.8%
19,COc1ccc(NC(=O)CSc2cc(C)nc3c(-c4ccccc4)cnn23)cc1,11.8%
20,O=C(COc1ccccc1-c1ccccc1)Nc1ccc(S(=O)(=O)NCc2ccco2)cc1,9.14%
